Measurements reported in the supplement of paper PMC3334620.
In all, about 33,000 sequences were measured (“E-score (-0.5 to 0.5)”: median about -0.041, highest 2% from about 0.37 on). The list shows a part of the results.

What follows are sequences tested against T1, Ecm22 (UniProt Q05958) (assay: PBM E-score (8-mer binding enrichment) (E-score (-0.5 to 0.5)); higher = stronger / more preferred TF binding; most listed sequences are background and not binding sites). Conditions: protein concentration: 200 nM; construct: GST-full length.
T1 sequence: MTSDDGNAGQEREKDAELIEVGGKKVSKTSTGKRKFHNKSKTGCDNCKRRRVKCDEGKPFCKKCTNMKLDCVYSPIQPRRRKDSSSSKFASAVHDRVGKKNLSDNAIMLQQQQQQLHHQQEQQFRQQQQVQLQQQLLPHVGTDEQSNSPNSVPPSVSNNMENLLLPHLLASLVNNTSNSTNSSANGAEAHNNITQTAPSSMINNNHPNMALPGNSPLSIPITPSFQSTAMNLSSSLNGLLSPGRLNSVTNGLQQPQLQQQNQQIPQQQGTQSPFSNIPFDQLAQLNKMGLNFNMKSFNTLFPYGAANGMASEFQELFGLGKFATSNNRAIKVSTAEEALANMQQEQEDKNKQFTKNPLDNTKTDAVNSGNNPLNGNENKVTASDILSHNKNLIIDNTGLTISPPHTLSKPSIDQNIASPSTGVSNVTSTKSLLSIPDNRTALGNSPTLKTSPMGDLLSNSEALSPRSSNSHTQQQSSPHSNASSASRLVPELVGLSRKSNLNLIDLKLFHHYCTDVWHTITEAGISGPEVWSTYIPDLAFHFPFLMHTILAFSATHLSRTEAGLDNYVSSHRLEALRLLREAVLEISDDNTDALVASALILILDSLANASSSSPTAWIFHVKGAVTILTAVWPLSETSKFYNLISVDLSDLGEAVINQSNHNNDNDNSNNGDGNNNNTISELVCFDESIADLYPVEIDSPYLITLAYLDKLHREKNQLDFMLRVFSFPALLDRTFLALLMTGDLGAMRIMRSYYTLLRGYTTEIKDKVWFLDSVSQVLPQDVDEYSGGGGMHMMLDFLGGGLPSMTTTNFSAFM
In short: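 Detection of bound protein used fluorescent anti-GST, with scans normalised by masliner. The proteins were GST-tagged yeast transcription factors applied at about 100-200 nM to universal all-10-mer Agilent arrays made double-stranded by primer extension. Each ungapped eight-base word, pooled with its reverse complement, was scored with an E-score from the Universal PBM Analysis Suite.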

Sequence | PBM E-score
AGCATCCG | 0.0405
ATGCTCTG | -0.321
CCTCTCGA | -0.246
CAATGTTC | -0.0481
GGATTGTA | 0.114
ACGGCGCC | 0.173
AATGACTC | -0.159
CCCCTGCA | -0.294
GACATCAC | 0.151
CAGTGGGC | -0.21
CAATGGCC | -0.222
CGGGTGCA | -0.0911
GTAACTAA | 0.0756
ATACATTC | -0.0026
CTAGGCAA | -0.254
ACAAGAGA | 0.0445
AATGACAG | 0.00025
GACTTGCC | -0.172
CTCTGTCC | -0.0843
CATCACGA | 0.0621
AGCCCGGA | -0.0669
CATATTGA | -0.0221
CATTGGAG | -0.0924
CAAACGCA | 0.103
CGGTGCTA | 0.11

Sequence | PBM E-score
CATCTAAC | -0.123
CCATGTCC | -0.138
CTGGGTCC | -0.0699
AATGTCGT | 0.329
CGAACGTA | 0.214
GGCCGCAA | -0.0973
ACGGACCC | 0.192
ACGTAAAT | 0.184
AGAGACAC | -0.0701
AGAAAACT | -0.258
GCGAACCC | 0.2
CGTTAGAA | 0.202
ACTTCCTA | -0.201
ACACTAAA | 0.0483
AGCGCGTC | -0.167
GCAGCACC | -0.24
ATCGGGGC | -0.0374
ACCAAGGA | -0.105
ACTCTCCC | -0.121
AATAGACT | -0.181
ATAACCCC | -0.163
CAGTACTA | -0.00071
CCGTGTAC | 0.228
ATCAGTTG | -0.0582
GATCTTGC | -0.103

Sequence | PBM E-score
CGACCAGA | 0.0404
CTTCCATC | -0.131
GAGCGATC | 0.114
TCGGCAAA | 0.0303
ATCGCACG | -0.187
GACATAGC | -0.227
AAGCGCGA | 0.0135
ACCAGGAG | -0.184
ACAAGACC | -0.205
AAGTAGAA | -0.158
CTCGAAGC | -0.123
CGAAATAG | 0.0481
AGAGGTAC | -0.0703
TCTGCGCA | -0.00535
CTCATAAG | -0.0586
GGAACGAC | 0.491
GACGAAGC | 0.0937
CGTCCGAC | 0.087
CATCCCCC | -0.207
ATATAGTA | 0.0796
CTAATAGA | 0.0918
GCCGCGAA | -0.0751
ACATGAGT | -0.174
GATTTTAC | 0.102
ACTTGAGC | -0.159

Sequence | PBM E-score
AATTCCTC | -0.0283
CCTATATC | -0.0867
GTCGTGGA | -0.2
GAGTATGA | 0.189
ACTATTGA | -0.0675
TCCGATAA | -0.00671
AGTGGATA | -0.0314
GACGGATA | -0.00582
ATCGCTTA | 0.327
CGGGGGAG | -0.222
TGCACTAA | 0.105
AGCACATC | -0.115
AGATTCGG | -0.033
CGCACTAC | -0.0495
CCAGCTTC | 0.144
CCCCTACG | -0.202
CACGGTAG | -0.159
CAAGGATA | -0.1
ACCACTTG | -0.0461
GTCGTTAA | 0.427
CATTATGA | -0.0704
CACTAGTG | -0.173
AGCCCCTC | 0.0236
CCCAAAAC | 0.101
AGACGGGG | -0.0581

Sequence | PBM E-score
TAATTATA | 0.252
CTGAATAA | -0.128
GGCGAAGA | -0.193
CTTAGAAG | -0.211
AACGACTT | 0.336
AAACGTTG | 0.0326
CCCGGGTA | -6e-05
GACTCCTA | -0.208
AGCGTATG | 0.136
AGCATCGC | 0.054
CATTCTAC | -0.133
CAGTCATG | -0.314
CAATACTA | -0.174
CGGCTTAA | 0.145
ACCGTGCG | 0.161
AACATACA | -0.0762
AGCAATAG | -0.0955
GTTCCTCA | 0.069
GTAGGCAA | -0.0916
AGAGGCTA | -0.209
ACGTCGTG | 0.117
CCCCACAG | -0.131
GATCTACC | -0.0079
ATTGCTGG | -0.159
TATCCACA | -0.065

Sequence | PBM E-score
CTATGGAC | -0.152
ACGTCTTG | -0.113
AGTTTCCA | -0.0965
CGGGCTGC | -0.0136
CTGGCTAC | 0.146
GATTTATA | 0.246
AACCCTGC | -0.0164
ATGTGTCA | -0.128
CACATATG | -0.147
ACAATCCT | -0.0917
CGTAGCTA | 0.271
AATAATCC | -0.0225
AACTCTGG | -0.154
ACCCGCCC | -0.0908
GTACCTAA | 0.201
CAGCTCGC | 0.248
AAAGAGCT | -0.209
AGTTGAAT | 0.0147
TCCACCAA | -0.236
AATTTCTC | 0.0237
CTGAAAGC | -0.0788
ATGGACTG | -0.151
GCAAGCGA | 0.187
AACCAAGA | -0.239
AAGGGATA | -0.122

Sequence | PBM E-score
CGACAACC | 0.143
AGGACCGC | 0.0459
GAAATTTC | -0.0255
GAGTACTA | 0.163
AGCTATAG | -0.308
CGACTACA | 0.0923
AGCAAAGA | -0.229
GGGGGTAC | 0.135
AACGTTGG | 0.00869
AGGAGACT | -0.28
CACGCTCA | -0.155
CGTGCGCC | -0.0925
ATGTGCGA | 0.292
GCGGATAC | 0.151
ATGGCGGA | -0.147
ATTGGTCC | -0.154
CACCAAGA | -0.117
CTAAAGGA | -0.0466
GGGTAGGA | -0.288
CTCCACAA | -0.074
CCGAACGG | 0.222
GCCCAAAA | -0.212
